In the supplement of paper PMC3334620:
The full ranking holds about 33,000 sequences; the median of “E-score (-0.5 to 0.5)” is about -0.012, and the highest 2% start at about 0.27. This is one part of the list.

biological target: T1, Vhr1 (UniProt P40522); experiment: PBM E-score (8-mer binding enrichment) (E-score (-0.5 to 0.5)); higher = stronger / more preferred TF binding; most listed sequences are background and not binding sites; conditions: protein concentration: 200 nM; construct: GST-full length
T1 sequence: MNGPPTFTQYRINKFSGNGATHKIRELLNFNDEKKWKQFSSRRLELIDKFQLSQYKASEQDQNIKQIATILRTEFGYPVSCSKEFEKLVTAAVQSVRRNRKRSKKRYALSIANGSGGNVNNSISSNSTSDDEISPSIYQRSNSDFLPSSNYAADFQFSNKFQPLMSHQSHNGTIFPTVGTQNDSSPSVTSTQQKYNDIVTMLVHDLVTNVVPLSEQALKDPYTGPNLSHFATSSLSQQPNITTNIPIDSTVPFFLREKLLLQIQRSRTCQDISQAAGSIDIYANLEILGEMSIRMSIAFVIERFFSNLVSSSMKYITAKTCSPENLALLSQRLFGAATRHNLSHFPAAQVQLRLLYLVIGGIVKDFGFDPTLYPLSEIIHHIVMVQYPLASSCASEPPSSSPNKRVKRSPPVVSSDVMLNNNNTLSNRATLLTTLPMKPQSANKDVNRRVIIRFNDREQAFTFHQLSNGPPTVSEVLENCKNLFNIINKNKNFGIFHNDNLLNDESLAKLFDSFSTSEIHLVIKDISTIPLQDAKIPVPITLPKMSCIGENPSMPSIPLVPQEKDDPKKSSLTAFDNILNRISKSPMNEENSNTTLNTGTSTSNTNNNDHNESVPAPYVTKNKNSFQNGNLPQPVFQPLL
Method in brief: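 For each ungapped eight-base word taken together with its reverse complement, the Universal PBM Analysis Suite assigned an E-score. Binding data came from GST-tagged yeast transcription factors, applied at about 100-200 nM, on universal all-10-mer Agilent arrays made double-stranded by primer extension. Fluorescent anti-GST marked bound protein, and scans were normalised with masliner.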

Sequence | PBM E-score
CCATATCG | 0.245
ACCCTTCA | -0.0667
CCTTATAG | 0.0603
CACAGGTA | 0.0614
CTACCTAC | 0.00587
CTGCCGGC | -0.098
GTGGAACA | -0.00567
AACTACTT | 0.035
CAAGCGGG | -0.0608
GGGGTCAC | 0.14
AGAAATTA | -0.11
AGAGGAGA | -0.123
CAACGAAC | -0.0458
CAAGGACG | -0.16
ACCTAACA | 0.0407
GCTGCACA | 0.0702
ACTTGAGG | -0.11
GAAACGAC | 0.089
AAAAAAAC | -0.286
ACCCCGTA | 0.0517
CCTTTTTC | -0.0918
GTAGTTTA | -0.0732
GAATAGCA | 0.00455
AGACAGTG | -0.0783

Sequence | PBM E-score
AGACTTTA | -0.334
AGCACAGA | 0.124
GAAATCTA | -0.149
ATGTCTGG | 0.0869
AGAATTCT | -0.0341
CCTGTCGC | -0.0335
AGGGAATG | 0.0512
GTGACAGA | -0.16
ACTGAACG | -0.142
AACAGTAC | 0.0913
CTTGAGGC | -0.174
ATTGTACA | -0.0219
TTATGCAA | 0.0181
AAGTACGC | -0.0238
ACGCTGGC | 0.0666
GACTGTGC | 0.0456
CCCCTGCG | -0.113
CCGACCCA | 0.114
CGCCGGCA | -0.107
CAAAGGCC | -0.263
ACGGGCCA | -0.101
ATTCGCGA | 0.0967
CCCCCCCG | -0.162
AAAAGCCT | -0.344

Sequence | PBM E-score
ATAGTCAT | 0.411
GAAGTCAA | 0.0872
AGCCTTTC | -0.265
ATTCAACA | 0.213
CCTTTAAC | -0.173
AATCCTTA | -0.15
CACGCTCC | -0.154
CAGATATA | 0.109
CGAATCCG | 0.141
AGATCGGA | 0.114
CCTGATTA | 0.158
AATTGTCC | -0.176
ACAGTACA | 0.0785
ACACAAAG | 0.163
CAAGTATG | 0.197
TCGAGCGA | 0.00674
CAAATCAA | 0.0775
CCGCACAC | 0.203
AGCCTCCC | -0.142
ATACACTA | 0.213
ATGTGGCG | 0.0435
GCCCTCGC | -0.0563
GTGTATAA | -0.13
CCCGGGCC | -0.111

Sequence | PBM E-score
CCGACTGA | -0.0635
CCGACGCC | 0.043
AATAGGGT | 0.164
CACACTCA | 0.217
CAACGTCG | 0.0725
GACGCGGA | -0.0732
ATGTGCTC | 0.17
ATCCCATG | 0.19
ATACACTC | 0.0393
CTCAAGGC | -0.0567
GTGAGGGA | -0.0444
TAAGCACA | 0.139
AATTCTGA | -0.0685
GTCCTCAA | -0.123
CGGGTCCC | -0.137
AGGAGAAC | -0.0673
CGTTGTAC | 0.0671
ATGGAGTA | 0.185
ATCCAGCA | 0.00537
CCGCATAC | 0.122
GGTCAGCA | 0.15
GCGTATAC | 0.131
